Assay results as given in publication PMC4336329 (PLoS ONE, 2015).
Among all 310,000 compounds or so, about 14,000 (4.5%) showed an effect of 50% or more. Effects have a minus sign here. The list shows a part of the results.

Target: human ether-à-go-go-related gene (hERG) potassium channel (human, UniProt Q12809)
Experiment: primary screen, population patch clamp on CHO cells stably expressing hERG
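Further: peak tail current of the secondary pulse compared with the same well before compound.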

Chain of human ether-à-go-go-related gene (hERG) potassium channel (Q12809 whole entry, looked up): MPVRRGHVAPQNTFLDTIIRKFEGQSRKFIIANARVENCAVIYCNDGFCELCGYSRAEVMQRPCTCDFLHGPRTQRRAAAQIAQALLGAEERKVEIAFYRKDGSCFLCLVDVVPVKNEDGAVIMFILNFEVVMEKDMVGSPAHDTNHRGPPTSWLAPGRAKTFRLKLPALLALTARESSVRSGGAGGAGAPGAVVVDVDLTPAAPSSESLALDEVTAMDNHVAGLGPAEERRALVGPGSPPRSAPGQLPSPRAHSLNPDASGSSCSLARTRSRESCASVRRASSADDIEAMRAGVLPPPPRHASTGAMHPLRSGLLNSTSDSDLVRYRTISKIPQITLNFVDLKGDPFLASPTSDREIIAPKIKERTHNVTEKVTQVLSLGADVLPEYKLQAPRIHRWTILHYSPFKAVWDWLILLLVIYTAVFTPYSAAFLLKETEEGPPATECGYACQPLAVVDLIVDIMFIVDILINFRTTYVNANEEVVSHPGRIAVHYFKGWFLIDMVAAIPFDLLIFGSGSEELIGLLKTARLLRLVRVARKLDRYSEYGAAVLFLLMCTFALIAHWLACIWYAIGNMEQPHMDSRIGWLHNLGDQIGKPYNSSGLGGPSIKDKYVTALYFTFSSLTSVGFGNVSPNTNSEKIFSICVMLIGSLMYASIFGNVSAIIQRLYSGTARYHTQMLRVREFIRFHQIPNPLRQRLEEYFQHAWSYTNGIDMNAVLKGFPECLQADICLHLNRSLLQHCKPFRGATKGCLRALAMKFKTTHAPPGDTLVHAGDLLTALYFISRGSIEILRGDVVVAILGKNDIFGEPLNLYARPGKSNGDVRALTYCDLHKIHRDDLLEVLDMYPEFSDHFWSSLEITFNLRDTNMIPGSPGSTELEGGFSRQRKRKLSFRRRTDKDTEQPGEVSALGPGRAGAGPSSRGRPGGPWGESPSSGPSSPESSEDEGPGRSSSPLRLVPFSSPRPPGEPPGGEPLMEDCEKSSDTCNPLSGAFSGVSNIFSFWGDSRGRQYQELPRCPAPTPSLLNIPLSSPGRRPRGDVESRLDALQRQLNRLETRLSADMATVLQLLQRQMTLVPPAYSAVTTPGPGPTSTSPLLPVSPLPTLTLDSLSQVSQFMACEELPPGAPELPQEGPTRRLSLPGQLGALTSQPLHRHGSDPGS

First: Cc1[nH]c2ccccc2c1C(=O)NS(=O)(=O)Nc1ccc(Cl)cc1
Second: O=C(Nc1ccc(S(=O)(=O)NCc2ccccc2)cc1)c1ccc(Br)o1
The “hERG current change (%, negative = inhibition) at 10uM” value of the first is higher: 21.1% for the first, -10.9% for the second.

Going from `O=C(Nc1ccc(C(=O)NCCCN2CCN(c3ccccc3)CC2)cc1)C1=CSCCO1` to `O=S(=O)(c1ccc(-n2cnnn2)cc1)N1CCN(c2ccccc2F)CC1`, the “hERG current change (%, negative = inhibition) at 10uM” value rises from -38.2% to -3.2%.

Compared with `CC(C)(C)C(=O)NC(=S)Nc1ccc(Cc2ccncc2)cc1`, `Cc1ccc(NC(=O)CN2C(=O)S/C(=C/c3ccncc3)C2=O)cc1` is higher in “hERG current change (%, negative = inhibition) at 10uM” value: -45.3% for the first, 5.97% for the second.

Going from `C#CCN1C(=O)C2C(C(=O)NC)C3C=CC2(O3)C1C(=O)NCc1ccc(OC)cc1` (centres unmarked) to `COc1ccc(-c2cc3c(=O)n(CC(=O)NCc4ccc(C)cc4)ncn3n2)cc1`, the “hERG current change (%, negative = inhibition) at 10uM” value rises from 8.12% to 16.8%.

Going from `N#Cc1c(Sc2ncc(C(F)(F)F)cc2Cl)nsc1C/C=N\OCc1c(F)cccc1Cl` to `CSc1ccccc1-c1nnc(-c2ccc(Cl)c(Cl)c2)o1`, the “hERG current change (%, negative = inhibition) at 10uM” value rises from 6.29% to 14.4%.

Going from `CC(O)[C@H]1CC[C@H]2[C@@H]3CC[C@H]4C[C@H](O)CC[C@]4(C)[C@H]3[C@H](O)C[C@]12C` (some centres unmarked) to `C[C@H]1O[C@@H](O[C@H]2[C@@H](O)C[C@H](O[C@H]3[C@@H](O)C[C@H](O[C@H]4CC[C@@]5(C)[C@H](CC[C@@H]6[C@@H]5C[C@@H](O)[C@]5(C)[C@@H](C7=CC(=O)OC7)CC[C@]65O)C4)O[C@@H]3C)O[C@@H]2C)C[C@H](O)[C@@H]1O`, the “hERG current change (%, negative = inhibition) at 10uM” value rises from -0.248% to 10.2%.

First: CCCn1nnnc1NCc1cccc(Cl)c1
Second: S=c1[nH]nc(-c2ccccn2)n1/N=C/c1cccc(Cl)c1
The “hERG current change (%, negative = inhibition) at 10uM” value of the first is higher: 14% for the first, 3.31% for the second.

Compared with `Cc1ccc(S(=O)(=O)N2CCCCC2C(=O)Nc2nncs2)cc1` (centres unmarked), `O=C(Nc1cccc(S(=O)(=O)N2CCCCC2)c1)C1CCC1` is higher in “hERG current change (%, negative = inhibition) at 10uM” value: -1.45% for the first, 3.43% for the second.

First: COc1oc(-c2ccc(Cl)cc2)nc1C(F)(F)F
Second: Nc1ncc(-n2cncn2)c(-c2ccc(Cl)cc2)n1
The “hERG current change (%, negative = inhibition) at 10uM” value of the first is higher: 11.6% for the first, 8.84% for the second.

First: O=C(CCC(=O)OCc1ccc([N+](=O)[O-])cc1Cl)Nc1ccccc1
Second: COc1cc(NC(=O)Cc2cccc3ccccc23)c(C(=O)O)cc1OC
The “hERG current change (%, negative = inhibition) at 10uM” value of the first is lower: 7.09% for the first, 9.74% for the second.

First: O=C(c1ccc(Cl)c(S(=O)(=O)N2CCOCC2)c1)N1CCN(c2ccccn2)CC1
Second: O=C(c1cnn(C(=O)c2cccc(S(=O)(=O)N3CCOCC3)c2)c1)c1ccccc1O
The “hERG current change (%, negative = inhibition) at 10uM” value of the first is lower: -44.2% for the first, 0.84% for the second.

Compared with `Cc1ccc(N(CC(=O)NC(C)C)C(=O)CCC(=O)Nc2nccs2)c(C)c1`, `Cc1ccc(SCCNC(=O)c2ccccc2C)cc1` is lower in “hERG current change (%, negative = inhibition) at 10uM” value: 13.8% for the first, 1.07% for the second.

Compared with `O=S(=O)(c1ccc(Cl)nc1)N1CCc2ccccc21`, `O=S(=O)(c1ccc(Cl)cc1)c1ccc(Cl)cc1` is higher in “hERG current change (%, negative = inhibition) at 10uM” value: -2.39% for the first, 13.3% for the second.

Going from `CNC(=O)c1cc(C(=O)c2ccc(C(F)(F)F)cc2)c[nH]1` to `N#CC1=C(N)SC(C(=O)c2ccccc2)C1c1cccs1` (centres unmarked), the “hERG current change (%, negative = inhibition) at 10uM” value falls from 31.8% to 4.14%.

Going from `Cc1cccc(CN2CCC(C(=O)Nc3ccc(-n4nc(C)cc4C)cc3)CC2)n1` to `Cc1ccc2nc(Nc3ccc4[nH]c(=O)[nH]c4c3)c(-n3nc(C)cc3C)nc2c1`, the “hERG current change (%, negative = inhibition) at 10uM” value rises from -25.2% to -9.13%.

Going from `O=C(NCCCn1cccn1)C1CCC(=O)N(Cc2ccccc2F)C1` (centres unmarked) to `O=C(Cc1ccccc1F)NC1CCSc2ccccc21` (centres unmarked), the “hERG current change (%, negative = inhibition) at 10uM” value falls from 18% to -13%.

First: COc1cccc2cc(-c3nnc(-c4ccccc4)o3)c(=O)oc12
Second: COc1cccc(-n2c(SCC(=O)NCc3ccco3)nnc2-c2c[nH]c3ccccc23)c1
The “hERG current change (%, negative = inhibition) at 10uM” value of the first is higher: 11.9% for the first, -37.8% for the second.

Compared with `COc1ccc(/C=N/NC(=O)c2cccc(Br)c2)cc1Cn1cc(Cl)cn1`, `COc1ccccc1CN1C(=O)CCC1(C)C(=O)NCc1cccnc1` (centres unmarked) is lower in “hERG current change (%, negative = inhibition) at 10uM” value: 8.83% for the first, -3.78% for the second.

Going from `CCN=C1SCC(=O)N1c1ccc(OC)cc1` to `COc1cccc(OCc2nc(-c3ccc(Br)o3)no2)c1`, the “hERG current change (%, negative = inhibition) at 10uM” value falls from 11.5% to -10.3%.

First: O=C(CN(Cc1ccccc1)S(=O)(=O)c1ccccc1)N/N=C/c1ccc2c(c1)OCO2
Second: CN(C(=O)c1ccccc1C(=O)OCC(=O)c1ccccc1)c1ccccc1
The “hERG current change (%, negative = inhibition) at 10uM” value of the first is higher: 8.28% for the first, -12.9% for the second.

Going from `O=C(CN(C(=O)c1ccccc1)N1C(=O)CCC1=O)c1cccs1` to `Cc1cc(C=C2C(=O)c3ccccc3C2=O)c(C)n1-c1cccc(C(=O)O)c1`, the “hERG current change (%, negative = inhibition) at 10uM” value falls from 6.91% to 4.95%.

Compared with `Cc1c(Cl)cccc1NC(=O)CSc1ccc(-c2cccnc2)nn1`, `O=C(COc1ccc(F)cc1)N/N=C/c1cccc2cccnc12` is higher in “hERG current change (%, negative = inhibition) at 10uM” value: 1.36% for the first, 15.6% for the second.

Compared with `CCOC(=O)c1sc2nc(-c3ccco3)c3c(c2c1N)CC(C)(C)OC3`, `CC1(C)CC(=O)C(C(=S)Nc2ccc(F)cc2)=C(NCCN2CCOCC2)C1` is lower in “hERG current change (%, negative = inhibition) at 10uM” value: 2.85% for the first, -7.9% for the second.

Compared with `NS(=O)(=O)c1ccc(Nc2c([N+](=O)[O-])cncc2[N+](=O)[O-])cc1`, `Cc1cccc(N2CCN(c3ccc4cc(S(=O)(=O)N5CCCCC5)ccc4n3)CC2C)c1` (centres unmarked) is higher in “hERG current change (%, negative = inhibition) at 10uM” value: -0.884% for the first, 9.91% for the second.

Going from `NC(=O)C1CCN(C(=O)Cc2ccc(-c3ccccc3)cc2)CC1` to `CCOC(=O)N1CCN(S(=O)(=O)N2CCCC(C(=O)NCCc3ccccc3)C2)CC1` (centres unmarked), the “hERG current change (%, negative = inhibition) at 10uM” value falls from 1.65% to -14.9%.

Going from `Fc1ccc(CNCc2cccc(Br)c2)cc1` to `COC(=O)N=Nc1c(O)n(Cc2ccccc2)c2ccccc12`, the “hERG current change (%, negative = inhibition) at 10uM” value falls from 13.9% to -6.53%.

In the case of `COc1ccc(CCNC(=O)c2cc(C(=O)c3cc(C)ccc3O)cn(CCc3ccc(OC)cc3)c2=O)cc1`, the “hERG current change (%, negative = inhibition) at 10uM” value is reported as 13.9%.
